Our source for the binding values is PMC10905564.

These are yes or no findings as the source states them, for the method shown. Some results given as binding are weak or reduced against the parent protein; the word gives no strength.

This assay deals with T1, LATE FLOWERING (LATE), full-length (Arabidopsis thaliana) (UniProt Q9FKA9).
T1 sequence: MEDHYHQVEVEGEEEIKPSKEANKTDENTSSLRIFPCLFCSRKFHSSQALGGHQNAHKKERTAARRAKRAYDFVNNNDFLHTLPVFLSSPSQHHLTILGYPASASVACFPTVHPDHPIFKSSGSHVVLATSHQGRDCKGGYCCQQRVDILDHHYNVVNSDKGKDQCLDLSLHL
Kind of assay: two-hybrid; bait fused to Gal4 DNA-BD (pDEST_GBKT7), prey fused to Gal4 AD (pDEST_GADT7), yeast strain Y2H gold; spotted onto SD -W/-L or SD -W/-L/-H with 0, 0.05 or 0.1 mM 3-AT; 30°C in the dark, 7-10 days.

B1: LATE FLOWERING (LATE), full-length (protein, UniProt Q9FKA9 1-173)
chain: MEDHYHQVEVEGEEEIKPSKEANKTDENTSSLRIFPCLFCSRKFHSSQALGGHQNAHKKERTAARRAKRAYDFVNNNDFLHTLPVFLSSPSQHHLTILGYPASASVACFPTVHPDHPIFKSSGSHVVLATSHQGRDCKGGYCCQQRVDILDHHYNVVNSDKGKDQCLDLSLHL
For the molecule B1, the binding result is “binds”.

B2: HDA19 (protein, UniProt O22446 1-501)
chain: MDTGGNSLASGPDGVKRKVCYFYDPEVGNYYYGQGHPMKPHRIRMTHALLAHYGLLQHMQVLKPFPARDRDLCRFHADDYVSFLRSITPETQQDQIRQLKRFNVGEDCPVFDGLYSFCQTYAGGSVGGSVKLNHGLCDIAINWAGGLHHAKKCEASGFCYVNDIVLAILELLKQHERVLYVDIDIHHGDGVEEAFYATDRVMTVSFHKFGDYFPGTGHIQDIGYGSGKYYSLNVPLDDGIDDESYHLLFKPIMGKVMEIFRPGAVVLQCGADSLSGDRLGCFNLSIKGHAECVKFMRSFNVPLLLLGGGGYTIRNVARCWCYETGVALGVEVEDKMPEHEYYEYFGPDYTLHVAPSNMENKNSRQMLEEIRNDLLHNLSKLQHAPSVPFQERPPDTETPEVDEDQEDGDKRWDPDSDMDVDDDRKPIPSRVKREAVEPDTKDKDGLKGIMERGKGCEVEVDESGSTKVTGVNPVGVEEASVKMEEEGTNKGGAEQAFPPKT
For the molecule B2, the binding entry is “no binding”.

B3: TOPLESS (TPL) (protein, UniProt Q94AI7 1-1131)
chain: MSSLSRELVFLILQFLDEEKFKETVHKLEQESGFFFNMKYFEDEVHNGNWDEVEKYLSGFTKVDDNRYSMKIFFEIRKQKYLEALDKHDRPKAVDILVKDLKVFSTFNEELFKEITQLLTLENFRENEQLSKYGDTKSARAIMLVELKKLIEANPLFRDKLQFPTLRNSRLRTLINQSLNWQHQLCKNPRPNPDIKTLFVDHSCGPPNGARAPSPVNNPLLGGIPKAGGFPPLGAHGPFQPTASPVPTPLAGWMSSPSSVPHPAVSAGAIALGGPSIPAALKHPRTPPTNASLDYPSADSEHVSKRTRPMGISDEVNLGVNMLPMSFSGQAHGHSPAFKAPDDLPKTVARTLSQGSSPMSMDFHPIKQTLLLVGTNVGDIGLWEVGSRERLVQKTFKVWDLSKCSMPLQAALVKEPVVSVNRVIWSPDGSLFGVAYSRHIVQLYSYHGGEDMRQHLEIDAHVGGVNDISFSTPNKQLCVITCGDDKTIKVWDAATGVKRHTFEGHEAPVYSVCPHYKENIQFIFSTALDGKIKAWLYDNMGSRVDYDAPGRWCTTMAYSADGTRLFSCGTSKDGESFIVEWNESEGAVKRTYQGFHKRSLGVVQFDTTKNRYLAAGDDFSIKFWDMDAVQLLTAIDGDGGLQASPRIRFNKEGSLLAVSGNENVIKIMANSDGLRLLHTFENISSESSKPAINSIAAAAAAAATSAGHADRSANVVSIQGMNGDSRNMVDVKPVITEESNDKSKIWKLTEVSEPSQCRSLRLPENLRVAKISRLIFTNSGNAILALASNAIHLLWKWQRNERNATGKATASLPPQQWQPASGILMTNDVAETNPEEAVPCFALSKNDSYVMSASGGKISLFNMMTFKTMATFMPPPPAATFLAFHPQDNNIIAIGMDDSTIQIYNVRVDEVKSKLKGHSKRITGLAFSNVLNVLVSSGADAQLCVWNTDGWEKQRSKVLPLPQGRPNSAPSDTRVQFHQDQAHFLVVHETQLAIYETTKLECMKQWAVRESLAPITHATFSCDSQLVYASFMDATVCVFSSANLRLRCRVNPSAYLPASLSNSNVHPLVIAAHPQEPNMFAVGLSDGGVHIFEPLESEGKWGVAPPAENGSASGAPTAPSVGASASDQPQR
Take B3: the binding entry is on record as “binds”.

B4: KNUCKLES (KNU) (protein, UniProt Q9FFX4 1-161)
chain: MAEPPPSYLHFVGPAKTRSSSKRHSFSSSAHPASHRLFPCQYCPRKFYTSQALGGHQNAHKRERAAARRNLGVLANSPPILDDNNTFLRPYPCFYQNPFQGSTSGNEPLQEQPTMMTMDGYDPFHPYPYVYPFALSGNNNDGGNGVMEEDEPLDLDLSLRL
In the case of B4, the binding entry is “no binding”.

B5: CRABS CLAW (CRC) (protein, UniProt Q8L925 1-181)
chain: MNLEEKPTMTASRASPQAEHLYYVRCSICNTILAVGIPLKRMLDTVTVKCGHCGNLSFLTTTPPLQGHVSLTLQMQSFGGSDYKKGSSSSSSSSTSSDQPPSPSPPFVVKPPEKKQRLPSAYNRFMRDEIQRIKSANPEIPHREAFSAAAKNWAKYIPNSPTSITSGGHNMIHGLGFGEKK
Take B5: the binding entry is listed as “binds”.
